The text below walks through data of PubChem BioAssay (NCATS).

Experiment [1] can be described thus: qHTS drug screen for cell cycle checkpoint inhibitors in PARPi-resistant BRCA-mutant ovarian cancer cell lines. (AID 1963452). The settings on record: PEO1/OlaR viability, CellTiter-Glo luminescence, 96 h. The method in brief: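 PEO1, PEO4 and PEO1/OlaR ovarian cancer cells, 600 per well, exposed 96 h at 37C to a dilution series. Viability read by CellTiter-Glo luminescence, normalized to DMSO and empty wells; activity summarized as Z-AUC.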

Experiment [2] can be described thus: qHTS for identification of novel therapeutic agents for treatment of microphthalmiaassociated transcription factor (MiT) renal cell carcinoma (RCC) (AID 1963991).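 For z-score: curves scaled with 100% = DMSO viability and 0% = empty wells.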 The settings on record: CellTiter-Glo, 48 h; for z-score: stronger effect = lower value. A digest of the protocol: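 UOK109/UOK124/UOK145 (TFE3 fusions, three partners); 500 cells/well; MIPE v4.0, 1912 cpds, 11 conc.; 48 h, 37 C; CellTiter-Glo, 15 min RT; lum. Norm.: DMSO 100%, empty 0%.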

The mark [3] stands for this setting: measured here: PEO1 parental viability.
Where [4] appears, read: TFE3-RCC UOK109 viability, measured here: UOK109 Z-AUC.
Setting [5] is: TFE3-RCC viability, measured here: UOK124 Z-AUC.
[6] abbreviates: TFE3-RCC viability, measured here: UOK124 cell viability.
Setting [7] is: TFE3-RCC viability, measured here: UOK145 Z-AUC.
Setting [8] is: TFE3-RCC viability, measured here: UOK145 cell viability.

The other results are listed elsewhere or left out. Further columns of the screen follow, without active or inactive calls. For part of these data: Most of these compounds were active or inconclusive in the main read-out, so they are no random draw. Words in brackets tell the shape of the fitted curve; partial curves, single points and poor fits give uncertain potencies.
Tags give direction and shape of the fitted curve.

Turning to `Cc1cc(Nc2nc(N[C@@H](C)c3ncc(F)cn3)ncc2Cl)n[nH]1`, the AC50 was 4.36 µM [falling, full curve] in experiment [1] (setting [3]); 2.19 µM [falling, full curve] in experiment [1] (measured here: PEO4 viability); 18.7 µM [falling, partial curve, poor fit] in experiment [2] (setting [6]); 29.6 µM [falling, single point] in experiment [2] (setting [8]). Moreover, the z-score in experiment [2] (setting [4]) was 1.4; in experiment [2] (setting [5]) it was -0.207; in experiment [2] (setting [7]) it was -0.214.

Consider `COc1cc2c(Oc3ccc(NC(=O)C4(C(=O)Nc5ccc(F)cc5)CC4)cc3F)ccnc2cc1OCCCN1CCOCC1`, for which the AC50 in experiment [1] (setting [3]) is 3.47 µM [falling, full curve]; in experiment [1] (measured here: PEO4 viability), 1.1 µM [falling, full curve]; in experiment [2] (setting [6]) it was 16.6 µM [falling, partial curve]; in experiment [2] (setting [8]) it was 7.43 µM [falling, full curve]. Also, the z-score was -0.638 in experiment [2] (setting [4]), -0.906 in experiment [2] (setting [5]) and -1.82 in experiment [2] (setting [7]).

As to `NC(=O)c1noc([C@H](CCCC2CCCCC2)CC(=O)NO)n1`, the AC50 in experiment [1] (setting [3]) was 27.5 µM [falling, single point]; in experiment [1] (measured here: PEO4 viability), 27.5 µM [falling, single point]; in experiment [2] (setting [6]), 20.9 µM [falling, partial curve]; in experiment [2] (setting [8]), 16.6 µM [falling, partial curve]. Further, the z-score in experiment [2] (setting [4]) worked out at 0.307; in experiment [2] (setting [5]) it was 0.472; in experiment [2] (setting [7]), 1.29.

`COc1cc2ncn(-c3cc(OCc4ccccc4C(F)(F)F)c(C(N)=O)s3)c2cc1OC`: the AC50 in experiment [1] (setting [3]) is 0.549 µM [falling, full curve]; in experiment [1] (measured here: PEO4 viability), 1.1 µM [falling, full curve]; in experiment [2] (setting [6]) it was 2.64 µM [falling, full curve]; in experiment [2] (setting [8]), 4.18 µM [falling, partial curve]. The figures for the z-score in experiment [2] (setting [4]), in experiment [2] (setting [5]) and in experiment [2] (setting [7]) were -0.656, -0.512 and -0.689, respectively.

In the case of `COc1cc2c(cc1-c1c(C)noc1C)ncc1[nH]c(=O)n([C@H](C)c3ccccn3)c12`, the AC50 in experiment [1] (setting [3]) was 1.95 µM [falling, full curve]; in experiment [1] (measured here: PEO4 viability), 1.38 µM [falling, full curve]; in experiment [2] (setting [6]), 16.6 µM [falling, partial curve]; in experiment [2] (setting [8]), 18.7 µM [falling, partial curve]. Besides, the z-score is -0.92 in experiment [2] (setting [4]), -0.384 in experiment [2] (setting [5]) and -0.495 in experiment [2] (setting [7]).

For `CC(C)NC[C@@H](C(=O)N1CCN(c2ncnc3c2[C@H](C)C[C@H]3O)CC1)c1ccc(Cl)cc1`, the AC50 is 9.77 µM [falling, partial curve, poor fit] in experiment [1] (setting [3]); 7.76 µM [falling, partial curve, poor fit] in experiment [1] (measured here: PEO4 viability); 23.5 µM [falling, partial curve] in experiment [2] (setting [6]); 14.8 µM [falling, partial curve] in experiment [2] (setting [8]). The z-score was -0.139 in experiment [2] (setting [4]), -1.1 in experiment [2] (setting [5]) and 0.0641 in experiment [2] (setting [7]).

Take `CNC(=O)c1cc(Oc2ccc(NC(=O)Nc3cc(C(C)(C)C)nn3-c3ccc4ncccc4c3)c(F)c2)ccn1`: the AC50 in experiment [1] (setting [3]) was 17.4 µM [falling, single point]; in experiment [1] (measured here: PEO4 viability) it was 27.5 µM [falling, single point]; in experiment [2] (setting [6]), 4.69 µM [falling, full curve]; in experiment [2] (setting [8]), 2.96 µM [falling, full curve]. Further, the z-score in experiment [2] (setting [4]) is -0.373; in experiment [2] (setting [5]), -0.3; in experiment [2] (setting [7]), -1.98.

Consider `O=C(Nc1cn[nH]c1-c1nc2ccc(CN3CCOCC3)cc2[nH]1)NC1CC1`, for which the AC50 is 3.09 µM [falling, full curve] in experiment [1] (setting [3]); 0.0977 µM [falling, full curve] in experiment [1] (measured here: PEO4 viability); 1.66 µM [falling, partial curve] in experiment [2] (setting [6]); 8.33 µM [falling, partial curve] in experiment [2] (setting [8]). In addition, the z-score in experiment [2] (setting [4]) was -1.93; in experiment [2] (setting [5]), -0.994; in experiment [2] (setting [7]), -0.443.

With `CCC(C(=O)O)C1CCC(C)C(C(C)C(O)C(C)C(=O)C(CC)C2OC3(C=CC(O)[C@@]4(CC[C@](C)(C5CC[C@@](O)(CC)C(C)O5)O4)O3)C(C)CC2C)O1` (some centres undefined), the AC50 in experiment [1] (setting [3]) is 0.49 µM [falling, partial curve]; in experiment [1] (measured here: PEO4 viability), 0.174 µM [falling, full curve]; in experiment [2] (setting [6]), 0.743 µM [falling, full curve]; in experiment [2] (setting [8]), 4.69 µM [falling, partial curve]. Further, the z-score was -0.7 in experiment [2] (setting [4]), -0.925 in experiment [2] (setting [5]) and -0.117 in experiment [2] (setting [7]).

As to `CC(C)(C)c1cc(NC(=O)Nc2ccc(-c3cn4c(n3)sc3cc(OCCN5CCOCC5)ccc34)cc2)no1`, the AC50 is 17.4 µM [falling, partial curve, poor fit] in experiment [1] (setting [3]); 19.5 µM [falling, partial curve] in experiment [1] (measured here: PEO4 viability); 20.9 µM [falling, single point] in experiment [2] (setting [6]); 14.8 µM [falling, partial curve] in experiment [2] (setting [8]). Further, the z-score in experiment [2] (setting [4]) is 0.396; in experiment [2] (setting [5]) it was -2.44; in experiment [2] (setting [7]), -1.65.

`COc1c(C)cnc(Cn2cnc3c(Cl)nc(N)nc32)c1C`: the AC50 in experiment [1] (setting [3]) was 0.776 µM [falling, full curve]; in experiment [1] (measured here: PEO4 viability), 0.616 µM [falling, full curve]; in experiment [2] (setting [6]) it was 0.148 µM [falling, partial curve, poor fit]; in experiment [2] (setting [8]) it was 0.148 µM [falling, full curve]. Moreover, the z-score was -0.543 in experiment [2] (setting [4]), -1 in experiment [2] (setting [5]) and -1.29 in experiment [2] (setting [7]).

Regarding `Oc1ccc(-c2ccc(-c3cc(Nc4cccc(CNC5CC5)c4)n[nH]3)cc2)c(O)c1`, the concentration at half-maximal activity (AC50) in experiment [1] (setting [3]) was 8.71 µM [falling, partial curve]; in experiment [1] (measured here: PEO4 viability) it was 7.76 µM [falling, partial curve, poor fit]; in experiment [2] (setting [6]), 13.2 µM [falling, partial curve]; in experiment [2] (setting [8]) it was 11.8 µM [falling, partial curve]. The z-score in experiment [2] (setting [4]) is -0.553; in experiment [2] (setting [5]), -1.38; in experiment [2] (setting [7]), 0.506.
